The record followed here is publication PMC9911399, “Two distinct binding modes provide the RNA-binding protein RbFox with extraordinary sequence specificity”.

Residue numbers refer to the chain shown, from its start. Some of the results follow.

T1: RBFOX1 RRM (Homo sapiens, UniProt Q9NWB1 109-208)
T1 sequence: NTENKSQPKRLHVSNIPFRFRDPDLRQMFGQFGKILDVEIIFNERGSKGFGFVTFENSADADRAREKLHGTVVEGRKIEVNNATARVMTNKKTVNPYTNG

B1: CGUCCCA (DNA:RNA)
RNA: GGGAGACCGGAAUUCAGAUUGUCCCGUCCCAUUAAAUCCCGUCGUAGCCACCA
DNA 1: CAATCTGAATTCCGGTCTCCC
DNA 2: TGGTGGCTACGACGGGATT
B2: CAGUAGC (DNA:RNA)
RNA: B1 RNA with G26A, U27G, C28U, C29A, C30G, A31C
DNA 1: CAATCTGAATTCCGGTCTCCC
DNA 2: TGGTGGCTACGACGGGATT
B3: AAUACCG (DNA:RNA)
RNA: B1 RNA with C25A, G26A, C28A, A31G
DNA 1: CAATCTGAATTCCGGTCTCCC
DNA 2: TGGTGGCTACGACGGGATT
B4: CCACAGU (DNA:RNA)
RNA: B1 RNA with G26C, U27A, C29A, C30G, A31U
DNA 1: CAATCTGAATTCCGGTCTCCC
DNA 2: TGGTGGCTACGACGGGATT
B5: ACGGGCC (DNA:RNA)
RNA: B1 RNA with C25A, G26C, U27G, C28G, C29G, A31C
DNA 1: CAATCTGAATTCCGGTCTCCC
DNA 2: TGGTGGCTACGACGGGATT
B6: UCGGCUG (DNA:RNA)
RNA: B1 RNA with C25U, G26C, U27G, C28G, C30U, A31G
DNA 1: CAATCTGAATTCCGGTCTCCC
DNA 2: TGGTGGCTACGACGGGATT
B7: UACAGCG (DNA:RNA)
RNA: B1 RNA with C25U, G26A, U27C, C28A, C29G, A31G
DNA 1: CAATCTGAATTCCGGTCTCCC
DNA 2: TGGTGGCTACGACGGGATT
B8: GUCUUUG (DNA:RNA)
RNA: GGGAGACCGGAAUUCAGAUUGUCCGUCUUUGUUAAAUCCCGUCGUAGCCACCA
DNA 1: CAATCTGAATTCCGGTCTCCC
DNA 2: TGGTGGCTACGACGGGATT
B9: GUUAUGG (DNA:RNA)
RNA: B8 RNA with C27U, U28A, U30G
DNA 1: CAATCTGAATTCCGGTCTCCC
DNA 2: TGGTGGCTACGACGGGATT
B10: UCUUCUA (DNA:RNA)
RNA: B1 RNA with C25U, G26C, C28U, C30U
DNA 1: CAATCTGAATTCCGGTCTCCC
DNA 2: TGGTGGCTACGACGGGATT
B11: GCUGUGA (DNA:RNA)
RNA: B1 RNA with C25G, G26C, C28G, C29U, C30G
DNA 1: CAATCTGAATTCCGGTCTCCC
DNA 2: TGGTGGCTACGACGGGATT
B12: CAAGUCA (DNA:RNA)
RNA: B1 RNA with G26A, U27A, C28G, C29U
DNA 1: CAATCTGAATTCCGGTCTCCC
DNA 2: TGGTGGCTACGACGGGATT
B13: CUCUGCG (DNA:RNA)
RNA: B8 RNA with G25C, U29G, U30C
DNA 1: CAATCTGAATTCCGGTCTCCC
DNA 2: TGGTGGCTACGACGGGATT
B14: GUAUAAC (DNA:RNA)
RNA: B8 RNA with C27A, U29A, U30A, G31C
DNA 1: CAATCTGAATTCCGGTCTCCC
DNA 2: TGGTGGCTACGACGGGATT
B15: GCUAACC (DNA:RNA)
RNA: B1 RNA with C25G, G26C, C28A, C29A, A31C
DNA 1: CAATCTGAATTCCGGTCTCCC
DNA 2: TGGTGGCTACGACGGGATT
B16: CUUUGAC (DNA:RNA)
RNA: B1 RNA with G26U, C28U, C29G, C30A, A31C
DNA 1: CAATCTGAATTCCGGTCTCCC
DNA 2: TGGTGGCTACGACGGGATT
B17: CCUAAGC (DNA:RNA)
RNA: B1 RNA with G26C, C28A, C29A, C30G, A31C
DNA 1: CAATCTGAATTCCGGTCTCCC
DNA 2: TGGTGGCTACGACGGGATT
B18: CUUUUAU (DNA:RNA)
RNA: B8 RNA with G25C, C27U, U30A, G31U
DNA 1: CAATCTGAATTCCGGTCTCCC
DNA 2: TGGTGGCTACGACGGGATT
B19: GGGCGAG (DNA:RNA)
RNA: B1 RNA with C25G, U27G, C29G, C30A, A31G
DNA 1: CAATCTGAATTCCGGTCTCCC
DNA 2: TGGTGGCTACGACGGGATT
B20: UACAGCU (DNA:RNA)
RNA: B1 RNA with C25U, G26A, U27C, C28A, C29G, A31U
DNA 1: CAATCTGAATTCCGGTCTCCC
DNA 2: TGGTGGCTACGACGGGATT
B21: UGACCAC (DNA:RNA)
RNA: B1 RNA with C25U, U27A, C30A, A31C
DNA 1: CAATCTGAATTCCGGTCTCCC
DNA 2: TGGTGGCTACGACGGGATT
B22: AUUUUCU (DNA:RNA)
RNA: B8 RNA with G25A, C27U, U30C, G31U
DNA 1: CAATCTGAATTCCGGTCTCCC
DNA 2: TGGTGGCTACGACGGGATT
B23: GUGACCG (DNA:RNA)
RNA: B8 RNA with C27G, U28A, U29C, U30C
DNA 1: CAATCTGAATTCCGGTCTCCC
DNA 2: TGGTGGCTACGACGGGATT
B24: AACUAGU (DNA:RNA)
RNA: B8 RNA with G25A, U26A, U29A, U30G, G31U
DNA 1: CAATCTGAATTCCGGTCTCCC
DNA 2: TGGTGGCTACGACGGGATT
B25: GGAUUGA (DNA:RNA)
RNA: B8 RNA with U26G, C27A, U30G, G31A
DNA 1: CAATCTGAATTCCGGTCTCCC
DNA 2: TGGTGGCTACGACGGGATT
B26: CAUGGAC (DNA:RNA)
RNA: B1 RNA with G26A, C28G, C29G, C30A, A31C
DNA 1: CAATCTGAATTCCGGTCTCCC
DNA 2: TGGTGGCTACGACGGGATT
B27: CCGUCAU (DNA:RNA)
RNA: B1 RNA with G26C, U27G, C28U, C30A, A31U
DNA 1: CAATCTGAATTCCGGTCTCCC
DNA 2: TGGTGGCTACGACGGGATT
B28: UAGGUUA (DNA:RNA)
RNA: B8 RNA with G25U, U26A, C27G, U28G, G31A
DNA 1: CAATCTGAATTCCGGTCTCCC
DNA 2: TGGTGGCTACGACGGGATT
B29: CACCUUU (DNA:RNA)
RNA: B8 RNA with G25C, U26A, U28C, G31U
DNA 1: CAATCTGAATTCCGGTCTCCC
DNA 2: TGGTGGCTACGACGGGATT
B30: GGAUCAG (DNA:RNA)
RNA: B8 RNA with U26G, C27A, U29C, U30A
DNA 1: CAATCTGAATTCCGGTCTCCC
DNA 2: TGGTGGCTACGACGGGATT
B31: AGGGGUA (DNA:RNA)
RNA: B1 RNA with C25A, U27G, C28G, C29G, C30U
DNA 1: CAATCTGAATTCCGGTCTCCC
DNA 2: TGGTGGCTACGACGGGATT

For this test, the target named is T1, RBFOX1 RRM. Kind of test: EMSA; HiTS-Eq, 1 nM pool, 10 min; buffer printed only for the single-RNA assays: 10 mM Tris pH 7.5, 150 mM NaCl, 3.4 mM EDTA, 0.001% NP-40, 30 C. The conditions noted are these: tags: His6 N-terminal (pET28a); label: 5' 32P. In a few lines:
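Purified RbFox RRM, wild type or mutant, was incubated for 10 min in 50 µL with 1 nM of a 5′-radiolabelled RNA pool carrying 7 randomized nucleotides, whose flanks were annealed to DNA oligonucleotides, over a series of increasing protein concentrations. Unbound RNA was resolved on 8% native PAGE, cut out, reverse-transcribed, barcoded by PCR and sequenced on an Illumina HiSeq 2500. Relative association constants were derived from changes in read counts for each RNA species versus the control reaction and normalised to the cognate motif.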
(In general: In EMSA bound probe runs differently from free probe, usually more slowly.)
Turning to B1, the binding signal was 0.00338 KA relative to UGCAUGU.
The same measure for B2: 0.0114 KA relative to UGCAUGU.
The same measure for B3: 0.00135 KA relative to UGCAUGU; for B4: 0.00373 KA relative to UGCAUGU; for B5: 0.0142 KA relative to UGCAUGU.
Turning to B6, the binding signal was 0.0209 KA relative to UGCAUGU.
The same measure for B7: 0.011 KA relative to UGCAUGU.
B8: the binding signal is 0.0215 KA relative to UGCAUGU.
As for B9, the figure is 0.00848 KA relative to UGCAUGU; as for B10, 0.00818 KA relative to UGCAUGU.
Turning to B11, the binding signal is 0.0164 KA relative to UGCAUGU.
As for B12, the figure is 0.000696 KA relative to UGCAUGU.
As to B13, the binding signal was 0.015 KA relative to UGCAUGU.
As for B14, the figure is 0.00373 KA relative to UGCAUGU; as for B15, 0.00586 KA relative to UGCAUGU.
With B16, the binding signal is 0.0117 KA relative to UGCAUGU.
As for B17, the figure is 0.00437 KA relative to UGCAUGU; as for B18, 0.0047 KA relative to UGCAUGU; as for B19, 0.0219 KA relative to UGCAUGU.
As for B20, the figure is 0.00395 KA relative to UGCAUGU; as for B21, 0.00656 KA relative to UGCAUGU; as for B22, 0.00886 KA relative to UGCAUGU.
With B23, the binding signal is 0.0167 KA relative to UGCAUGU.
As for B24, the figure is 0.0052 KA relative to UGCAUGU.
Turning to B25, the binding signal is 0.0181 KA relative to UGCAUGU.
As for B26, the figure is 0.00577 KA relative to UGCAUGU.
B27: the binding signal is 0.00402 KA relative to UGCAUGU.
As for B28, the figure is 0.0132 KA relative to UGCAUGU; as for B29, 0.00103 KA relative to UGCAUGU; as for B30, 0.0168 KA relative to UGCAUGU.
As for B31, the figure is 0.0196 KA relative to UGCAUGU.
